The record followed here is ChEMBL document CHEMBL4888484, “Replenishing the malaria drug discovery pipeline: Screening and hit evaluation of the MMV Hit Generation Library 1 (HGL1) against asexual blood stage Plasmodium falciparum ,using a nano luciferase reporter read-out” (2022).

Among all 150,000 compounds or so, about 540 (0.36%) showed an effect of 50% or more. This is one part of the list.

As usually defined, the % Inhibition is the change of the read-out against control, counted positive when it falls.

This test has as its system Plasmodium falciparum. The test can be described thus: Primary screen in NF54 nanoGlo assay, in single point, at 2uM, 72h; a lower Z score goes with more inhibition. Type of test: functional, Erythrocyte. As to conditions: timepoint 72 hour.
Turning to `CNC1CCN(C(C)CCc2ccc3c(c2)OCO3)C1` (configuration not stated), the “% Inhibition” value is on record as -5% and the Z score is recorded as 0.74.
On the same counts, the results for `Cn1ncnc1CCNC(=O)c1ccc(-c2ccc3c(c2)OCC3)cc1` are -16% and 2.76.
On the same counts, the results for `Fc1cccc(OCCN2CCC[C@H](C3OCCO3)C2)c1` are -3% and 0.27.
On the same counts, the results for `CC(=O)N1CCC(CC(=O)NC(C)C)(N2Cc3ccccc3C2=O)CC1` are -4% and 0.58.
As for `CS(=O)(=O)c1ccc(S(=O)(=O)N2CC[C@H]2c2ccccc2)cc1`, the “% Inhibition” value is -12% and the Z score was 1.2.
Consider `Cc1ccnc(NS(=O)(=O)c2ccc(Nc3cc(-c4ccccc4)nc(C)n3)cc2)n1`, for which the “% Inhibition” value turned out to be 2% and the Z score was -0.27.
On the same counts, the results for `Cc1cccc(OC2CN([C@@H](C)CCN(C)C)C2)c1` are -19% and 2.04.
On the same counts, the results for `N#Cc1c(-c2cccnc2)cc(-c2c[nH]c3ccccc23)nc1N` are 3% and -0.41.
On the same counts, the results for `CC(C)NCc1ccccc1Br` are 2% and -0.26.
Take `Cn1nc(C(F)(F)F)cc1NC(=O)NC12CC1COC2(C)C` (configuration not stated): the “% Inhibition” value was found to be 6% and the Z score is reported as -0.93.
In the same order, the values of `COc1cccc(C2=NS(=O)(=O)N(C)C(C(=O)N3CCC(C(N)=O)CC3)=C2)c1` are 22% and -3.71.
As for `CN(C(=O)c1ccnn1CC(F)(F)F)C(C)(C)CN1CCCC1`, the “% Inhibition” value is reported as -8% and the Z score is reported as 1.04.
Take `CCCCNC(=O)NCC1([C@@H](O)C(C)C)CC1`: the “% Inhibition” value is given as -16% and the Z score worked out at 1.4.
On the same counts, the results for `CC(C)(C(=O)N1CCC(C(=O)O)CC1)c1ccc2c(c1)OCCO2` are 0% and -0.01.
On the same counts, the results for `COc1cc(OC)c2ncnc(-n3ccnc3)c2c1` are 5% and -0.62.
On the same counts, the results for `Cc1cc(C)nc(NC(=O)N2CCC[C@@H]2CO)c1` are -7% and 0.83.
Take `CN(Cc1noc2c1CCCC2)S(=O)(=O)c1cccs1`: the “% Inhibition” value is -8% and the Z score turned out to be 1.26.
On the same counts, the results for `Cc1nc(-c2ccncc2)nc(N2CC(O)C(O)C2)c1C` (configuration not stated) are -3% and 0.48.
On the same counts, the results for `CCC1(CC)NC(=O)N(CC(=O)N2CCN(S(=O)(=O)c3ccc(C)cc3)CC2)C1=O` are -13% and 2.07.
Take `O=c1ccc(F)cn1CCc1ccc2c(c1)CCO2`: the “% Inhibition” value is -12% and the Z score came out at 1.72.
In the same order, the values of `O=C1C2CC=CCC2C(=O)N1Cc1ccn(-c2ccc(F)cc2F)n1` (configuration not stated) are -6% and 0.78.
As for `COc1ccccc1N(CN1CCCC1=O)C(=O)c1cccc(Cl)c1`, the “% Inhibition” value was found to be 0% and the Z score worked out at 0.07.
On the same counts, the results for `Cc1nc(NC(=O)c2cc(Cl)c3c(c2)OCCCO3)sc1C` are -15% and 2.74.
In the same order, the values of `Cc1nnc(CS(=O)(=O)Cc2c(Cl)cccc2Cl)o1` are -40% and 4.75.
On the same counts, the results for `Cc1cc(C)n2ncc(-c3noc(C4CN(C5CCCCC5)C4)n3)c2n1` are -6% and 1.22.
As to `CCOC(=O)CN(CC(=O)N1CCCCC1CC)C(C)c1ccccc1` (configuration not stated), the “% Inhibition” value is on record as -16% and the Z score is recorded as 1.79.
On the same counts, the results for `Cc1nnc(CC(=O)N(C)C2CCOC(c3ccc(F)cc3)C2)o1` (configuration not stated) are -6% and 1.
On the same counts, the results for `Cc1nn(C)c(Cl)c1[C@H]1CC(=O)Nc2c1cnn2Cc1cccnc1` are 4% and -0.88.
On the same counts, the results for `O=C1CNc2ccc(C(=O)NCCCc3cccnc3)cc2N1` are 6% and -0.58.
In the case of `COCCc1nsc(Oc2ccc(F)c(C(F)(F)F)c2)n1`, the “% Inhibition” value is on record as -11% and the Z score is 1.48.
On the same counts, the results for `COc1ccc(-c2nccn3cc(C(=O)N4CCN(c5ncccn5)CC4)nc23)cc1` are 1% and -0.24.
In the same order, the values of `Cn1ccc(C(=O)Nc2cccnc2)cc1=O` are -37% and 4.35.
As to `Cc1ccc(CNCc2cc(C3CCNCC3)no2)s1`, the “% Inhibition” value came out at 0% and the Z score is 0.03.
In the same order, the values of `O=C(CC1CCCC1)NCCCOCC(F)(F)F` are -11% and 1.43.
In the same order, the values of `CC(C)(C)OC(=O)N1CC2(C[C@H](NC(=O)Nc3cccnc3)CO2)C1` are 12% and -1.51.
On the same counts, the results for `O=C(CCN1C[C@H]2CC=CC[C@H]2C1)NCc1ccc(F)cc1` are -14% and 2.35.
As to `Cc1occc1C(=O)NC[C@@H](CO)Cc1ccc(F)c(F)c1`, the “% Inhibition” value is reported as -1% and the Z score was found to be 0.24.
On the same counts, the results for `Cn1c(N2CCOC3(CCCC3)C2)nnc1[C@]1(C)CCCO1` are -4% and 0.51.
In the same order, the values of `Nc1c2c(-c3ccccc3)nc(NCCN3CCCC3)nc2nn1-c1ccc(C(F)(F)F)cc1` are -5% and 0.88.
In the same order, the values of `Cc1ccc(Cc2ccccc2C(=O)N2C[C@@H]3[C@H](C2)[C@H]3C(=O)O)cc1F` are -8% and 1.41.
As for `CN1CCC(NC(=O)Cn2c(COc3ccccc3)nc3ccccc32)CC1`, the “% Inhibition” value is -3% and the Z score is 0.27.
In the same order, the values of `CC1(CNC(=O)c2ccccc2NC(=O)C(C)(C)C)CN(Cc2ccccc2)C1` are -8% and 1.3.
In the same order, the values of `C[C@H]1CN(c2ccccc2)CCN1C(=O)c1cnc(O)cn1` are -3% and 0.5.
In the same order, the values of `O=C1C2C(C(=O)N1c1ccc(Cl)c(Cl)c1)C1(O[C@H]2c2ccc(Br)cc2)C(=O)c2ccccc2C1=O` (some centres not stated) are -7% and 0.86.
With `COc1cc(-c2nccn2-c2ccc(C)nc2)cc(OC)c1OC`, the “% Inhibition” value is given as -1% and the Z score was 0.15.
In the same order, the values of `CN1CC[C@H](NS(=O)(=O)NCc2ccccc2)[C@H](Cc2ccccc2)C1` are -8% and 1.39.
Turning to `CC(C)Cn1ccnc1NCc1cnnn1C`, the “% Inhibition” value was determined as 1% and the Z score is -0.08.
As to `Cc1nn(C)c2c(=O)n(CC(=O)NCc3ccc(Br)cc3)ccc12`, the “% Inhibition” value is reported as -13% and the Z score is on record as 1.28.
Consider `O=c1c(Cl)c(NCCO)ncn1-c1ccccc1`, for which the “% Inhibition” value is -2% and the Z score is 0.2.
On the same counts, the results for `C[C@H](NC(N)=O)C(=O)N1CCCCCC1c1ncon1` (some centres not stated) are 29% and -3.73.
On the same counts, the results for `CN(Cc1ccncc1)C(=O)c1cccnc1` are -14% and 2.05.
In the same order, the values of `Cc1cnc(NC(=O)[C@@H]2CNC(=O)N2)s1` are -5% and 0.83.
For the compound `CCC[C@@H](C(=O)NCCN1CCOCC1)n1c(Cc2ccc(Cl)cc2Cl)nc2ccccc21`, the “% Inhibition” value is -7% and the Z score was determined as 1.01.
In the same order, the values of `Cc1nc(C)c(COc2nc(C(C)(C)C)no2)s1` are -7% and 1.04.
On the same counts, the results for `O=C(Cn1c(=O)cnc2ccccc21)N1CCCN(c2ccc(Cl)c(Cl)c2)CC1` are -5% and 0.47.
On the same counts, the results for `COC1(C)CC(N(C)C(=O)NCc2cnc(C)s2)C1(C)C` (configuration not stated) are -3% and 0.49.
